According to publication PMC4336329 (PLoS ONE, 2015):
Hit rate of the full screen: of about 310,000 compounds, about 14,000 (4.5%) showed an effect of 50% or more. Effects have a minus sign here. Some of the results follow.

target: human ether-à-go-go-related gene (hERG) potassium channel (human, UniProt Q12809); experiment: primary screen, population patch clamp on CHO cells stably expressing hERG
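Further: peak tail current of the secondary pulse compared with the same well before compound.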

human ether-à-go-go-related gene (hERG) potassium channel, sequence (Q12809 whole entry, looked up): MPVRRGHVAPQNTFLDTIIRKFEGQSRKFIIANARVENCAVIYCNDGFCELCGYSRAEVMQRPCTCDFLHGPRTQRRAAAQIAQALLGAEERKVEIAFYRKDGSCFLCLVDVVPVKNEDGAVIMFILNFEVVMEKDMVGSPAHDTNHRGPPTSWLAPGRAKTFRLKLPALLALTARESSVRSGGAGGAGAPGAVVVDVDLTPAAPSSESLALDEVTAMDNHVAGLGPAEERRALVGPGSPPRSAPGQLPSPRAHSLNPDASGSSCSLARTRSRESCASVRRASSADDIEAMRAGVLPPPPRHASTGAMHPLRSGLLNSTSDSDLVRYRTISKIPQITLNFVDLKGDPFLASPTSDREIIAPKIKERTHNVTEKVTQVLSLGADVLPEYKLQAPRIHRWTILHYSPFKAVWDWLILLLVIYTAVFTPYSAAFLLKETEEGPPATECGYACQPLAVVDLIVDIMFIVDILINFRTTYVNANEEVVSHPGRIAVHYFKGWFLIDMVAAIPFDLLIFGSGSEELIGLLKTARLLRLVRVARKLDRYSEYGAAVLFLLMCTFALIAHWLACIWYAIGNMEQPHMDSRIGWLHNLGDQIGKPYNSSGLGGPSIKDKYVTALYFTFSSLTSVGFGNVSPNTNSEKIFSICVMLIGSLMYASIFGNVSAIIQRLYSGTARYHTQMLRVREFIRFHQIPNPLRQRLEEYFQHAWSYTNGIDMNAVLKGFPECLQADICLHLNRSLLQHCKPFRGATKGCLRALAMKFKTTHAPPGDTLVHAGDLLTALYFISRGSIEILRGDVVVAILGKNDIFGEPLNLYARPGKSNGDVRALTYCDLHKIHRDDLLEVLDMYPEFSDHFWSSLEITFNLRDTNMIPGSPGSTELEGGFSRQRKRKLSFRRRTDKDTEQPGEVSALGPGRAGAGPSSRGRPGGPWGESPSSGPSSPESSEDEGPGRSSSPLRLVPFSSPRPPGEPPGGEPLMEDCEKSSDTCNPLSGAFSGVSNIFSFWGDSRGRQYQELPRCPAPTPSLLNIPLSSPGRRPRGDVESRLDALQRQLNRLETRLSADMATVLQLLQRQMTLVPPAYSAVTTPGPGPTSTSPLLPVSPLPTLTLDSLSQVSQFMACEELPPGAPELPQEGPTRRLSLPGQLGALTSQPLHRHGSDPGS

SMILES | hERG current change (%, negative = inhibition) at 10uM
C[C@@H](CN=[N+]=[N-])CN1CC[C@H](C(C)(C)C)CCC1=O | 3.55%
Clc1cccc(-c2nc(NCCN3CCOCC3)c3ccccc3n2)c1 | -38.6%
Cc1sc2nc(CN3CCOCC3)nc(N3CCC(C(N)=O)CC3)c2c1C | 5.73%
Cc1cccc(C)c1N=Nc1c(C)cc(O)cc1C | 10.4%
CNS(=O)(=O)c1cc(OC)c(OC)cc1CC(=O)OC | 23.7%
COc1ccc(S(=O)(=O)NCc2ccc3c(c2)cc(C)n3C)cc1 | -4.72%
O=C1CN(C(=O)CSc2nc3ccccc3n2CCc2ccccc2)c2ccccc2N1 | -20.6%
Cc1ccc(CN2CCC(Oc3cccc(C(=O)NCc4cccnc4)c3)CC2)o1 | -24.7%
CCOC(=O)Cc1csc(NC(=O)COc2ccc(C)c(C)c2)n1 | 3.57%
Cc1ccc(-c2nc(=S)c3c(n2CCN2CCOCC2)CC(C)(C)OC3)cc1 | -0.783%
Cc1ccc(S(=O)(=O)N2CC(C(=O)O)=CC[C@H]2c2ccc(Cl)cc2)cc1 | 18.2%
Cc1nn(C(C)(C)C)c(N)c1-c1ccccc1 | 10.2%
Cc1[nH]c2ccccc2c1/C=N/NC(=O)c1cccc(S(=O)(=O)Nc2cccc(C(F)(F)F)c2)c1 | 18.6%
Cc1cc(C)cc(C(=O)N(CCc2ccccc2)C2=CC3CCC(C2)N3C)c1.Cl (stereo not drawn) | -60.7%
COc1ccc(OC(C)C(=O)NC(C)c2ccccc2)cc1 (stereo not drawn) | 27.7%
Cl.O=C(O)c1ccoc1CN1CCCCC1 | -3.81%
CC1=NN(c2ccc(Cl)c(C(=O)O)c2)C(=O)/C1=C/c1ccc(-c2ccccc2[N+](=O)[O-])o1 | 5.1%
Cc1ccccc1C(=O)NC1CCN(CC(=O)Nc2ccc(Br)cc2)CC1 | -39.3%
CCOC(=O)/C(N=Nc1sc(C(=O)OC)c(C)c1C(=O)OCC)=C(\O)CCl | 2.33%
COc1cccc(CN(C)C(=O)c2cc(S(=O)(=O)NCc3ccccc3)ccc2C)c1OC | -16.7%
NS(=O)(=O)c1ccc(CCNC(=O)c2cccc(OC(F)F)c2)cc1 | -24.5%
Cc1cccc(C)c1NC(=O)C1(N(Cc2ccco2)C(=O)CC2NC(=O)NC2=O)CCCC1 (stereo not drawn) | 8.55%
CCOC(=O)c1c(C)[nH]c(C(C)=O)c1C | 9.55%
CN(C(=O)CSc1nnnn1C)C1(C#N)CCCCC1 | 10.7%
O=C(COC(=O)c1nc(Cl)ccc1Cl)NNC(=O)c1cccs1 | 9.68%
COc1ccc(OC)c(/C=N/NC(=O)C(=O)N2CCCC2)c1 | -6.06%
CCc1ccccc1NC(=O)c1noc(C(C)C)c1[N+](=O)[O-] | -0.896%

SMILES | hERG current change (%, negative = inhibition) at 10uM
OCC1(CCCc2ccccc2)CCN(Cc2cc(F)ccc2F)CC1 | -69.5%
CCCC(=O)OC1CCS(=O)(=O)c2sccc21 (stereo not drawn) | 10.5%
CCn1c(SCC(=O)Nc2cc(C)on2)nnc1-c1ccc(S(=O)(=O)N2CCCC2)cc1 | -1.7%
COc1ccc(-c2[nH]ncc2CN2CCC(C(=O)c3ccc(F)cc3)CC2)cc1 | -76.2%
O=C(CCC(=O)Nc1cccc([N+](=O)[O-])c1)N/N=C/c1cccs1 | -4.69%
C/C(CC(=O)Nc1cc(C)ccn1)=N\NC(=O)c1ccc(C(C)(C)C)cc1 | 12.9%
CCOC(=O)c1[nH]c(C)c(C(=O)/C=C/c2ccc(C(=O)O)cc2)c1C | 19.3%
Nc1cc(=O)[nH]c(SCc2cccc(Cl)c2)n1 | 5.62%
C=CCNc1nc2c(c(=O)n(C)c(=O)n2C)n1CC(=C)C | -5.68%
NC(=O)NC(=O)C(c1ccccc1)N1CCN(S(=O)(=O)Cc2ccccc2)CC1 (stereo not drawn) | -18.9%
CCOC(=O)C1=C(C)Nc2ccccc2N=C1NC(=O)c1cccc(S(=O)(=O)NCc2ccccc2)c1 | -19.4%
O=C(Nc1nc2c(s1)CCCC2)c1ccc(S(=O)(=O)N2CCCc3ccccc32)cc1 | 20.9%
COc1ccc(S(=O)(=O)N(C)CC(=O)NCCc2ccccc2)cc1OC | -5.73%
CCN1CCN(C(=O)C2=C(C(=O)O)CCCC2)CC1 | 6.09%
CC(=O)Nc1ccc2c(c1)c1ccccc1n2C(C)=O | 0.357%
CC(C(N)=O)N1C(=O)C2C3C=CC(C3)C2C1=O (stereo not drawn) | 13.3%
Cc1ccnc(N2CCC(C(=O)NNC(=O)COc3cccc4ccccc34)CC2)n1 | 11.2%
Cc1csc(Sc2nc3c(c(=O)[nH]c(=O)n3C)n2CCCc2ccccc2)n1 | 12.2%
Cc1ccc(S(=O)(=O)N2[C@@H](c3ccccc3)C(C(=O)O)=CC[C@H]2c2cccc(Cl)c2)cc1 | 10.6%
O=C1C[C@@H](c2ccc(O[C@@H]3O[C@H](CO)[C@@H](O)[C@H](O)[C@H]3O)cc2)Oc2cc(O)ccc21 | 7.57%
Cc1ccc(N2C(=O)CC2(C#N)c2ccc(OCc3ccccc3)cc2)cc1 (stereo not drawn) | -29.4%
O=C(Cn1nc(-c2cccc([N+](=O)[O-])c2)c2ccccc2c1=O)Nc1cccnc1 | -13.8%
CCc1c(C)nc(Nc2nc(C)c3cc(OC)ccc3n2)[nH]c1=O | 3.37%
CCOc1ccc(-n2c(Cc3cc(=O)[nH]c(=O)[nH]3)nnc2SCC(=O)NC2CCCC2)cc1 | 11.9%
Cc1nnsc1C(=O)N1CCCC(Nc2ccc(F)c(F)c2)C1 (stereo not drawn) | 0.644%
O=C(Cn1cc(C(=O)c2ccco2)c2ccccc21)NC1CCCCC1 | -1.45%
COc1ccccc1CNC(=O)c1ccc(S(=O)(=O)N(C)C)cc1 | 0.905%
